# Assay results reported in the supplement of paper PMC9046079.
# Structures can show the parent of a compound that is named as a salt. ± gives the standard deviation of the averaged measurements. This is one part of the list.
# Key:
# [1] = system: murine small intestinal organoids (ENR+CD Paneth differentiation); test: cellular ATP (CellTiter-Glo 3D) relative to plate median (log10 fold change); higher = more viable cells; conditions: 6 d
# [2] = system: murine small intestinal organoids (ENR+CD Paneth differentiation); test: carbachol-stimulated secreted lysozyme activity relative to plate median (log10 fold change); higher = more Paneth cell lysozyme secretion; conditions: 6 d, carbachol 10 µM
# [3] = system: murine small intestinal organoids (ENR+CD Paneth differentiation); test: basal (non-stimulated) secreted lysozyme activity relative to plate median (log10 fold change); higher = more Paneth cell lysozyme secretion; conditions: 6 d
# 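Wherever basal (non-stimulated) secreted lysozyme activity relative to plate median is given: ISC-enriched organoid precursors grown as 2.5D pseudo-monolayer on Matrigel, compound given on day 0 and day 3, plate values LOESS-normalized before median fold change, three murine donors.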
# 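Wherever cellular ATP (CellTiter-Glo 3D) relative to plate median is given: 2.5D pseudo-monolayer culture of ISC-enriched organoids partly embedded atop Matrigel, compound added on day 0 and again on day 3, per-plate LOESS correction before median fold change.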
SMILES,cellular ATP (log10) ([1]; 0.08 µM),cellular ATP (log10) ([1]; 0.4 µM),cellular ATP (log10) ([1]; 2 µM),cellular ATP (log10) ([1]; 10 µM),carbachol-stimulated secreted lysozyme activity (log10) ([2]; 0.08 µM),carbachol-stimulated secreted lysozyme activity (log10) ([2]; 0.4 µM),carbachol-stimulated secreted lysozyme activity (log10) ([2]; 2 µM),carbachol-stimulated secreted lysozyme activity (log10) ([2]; 10 µM),basal (log10) ([3]; 0.08 µM),basal (log10) ([3]; 0.4 µM),basal (log10) ([3]; 2 µM),basal (log10) ([3]; 10 µM)
NC1(Cc2ccc(Cl)cc2)CCN(c2ncnc3[nH]ccc23)CC1,0.0952 ± 0.22,-0.0252 ± 0.034,0.127 ± 0.22,-0.175 ± 0.13,0.255 ± 0.2,0.0277 ± 0.064,-0.00021 ± 0.033,-0.239 ± 0.1,0.323 ± 0.12,-0.0177 ± 0.024,0.0727 ± 0.13,-0.15 ± 0.086
COc1cc(Br)c(Nc2nc(-c3c(C)nc4ncccn34)cs2)c(Br)c1,-0.794 ± 1,-0.235 ± 0.3,-0.808 ± 0.77,-0.929 ± 0.84,-0.165 ± 0.41,-0.0362 ± 0.091,-0.154 ± 0.27,-0.148 ± 0.33,-0.0966 ± 0.26,0.00882 ± 0.039,-0.00877 ± 0.23,-0.0609 ± 0.17
COc1ccccc1S(=O)(=O)Nc1ccc2c(c1)CN(C)C(=O)N2,0.142 ± 0.17,0.39 ± 0.28,0.322 ± 0.32,-0.389 ± 0.43,0.106 ± 0.055,0.138 ± 0.31,-0.153 ± 0.084,-0.275 ± 0.026,0.0617 ± 0.059,0.0794 ± 0.2,-0.0979 ± 0.06,-0.0658 ± 0.062
C[C@@H]1C(=O)O[C@H]2C[C@@]34[C@H]5C[C@@H](C(C)(C)C)[C@]36[C@@H](OC(=O)[C@@H]6O)O[C@@]4(C(=O)O5)[C@]21O [Ginkgolide A],0.00475 ± 0.23,-0.0168 ± 0.28,0.0398 ± 0.14,-0.0119 ± 0.086,0.193 ± 0.27,0.253 ± 0.013,0.0234 ± 0.055,-0.029 ± 0.018,0.0454 ± 0.022,0.0255 ± 0.086,0.0296 ± 0.07,0.0517 ± 0.19
CCOC(=O)N1CCC(=C2c3ccc(Cl)cc3CCc3cccnc32)CC1 [Loratadine],-0.292 ± 0.27,0.145 ± 0.048,-0.204 ± 0.16,-0.12 ± 0.16,-0.0687 ± 0.064,0.0113 ± 0.0097,-0.189 ± 0.11,-0.125 ± 0.044,0.0107 ± 0.042,-0.000548 ± 0.072,-0.108 ± 0.079,-0.101 ± 0.032
Cc1ccc(NCCCc2ccccc2)c(N)c1,0.193 ± 0.26,0.23 ± 0.27,0.0738 ± 0.25,0.0461 ± 0.16,0.164 ± 0.022,0.0558 ± 0.044,-0.0395 ± 0.035,-0.0739 ± 0.08,0.0545 ± 0.089,0.079 ± 0.12,-0.00191 ± 0.098,-0.0458 ± 0.12
CCn1c2ccccc2c2cc(Nc3ccnc(NCCCN4CCOCC4)n3)ccc21,0.0809 ± 0.27,0.0616 ± 0.12,0.0882 ± 0.24,-0.757 ± 0.5,0.184 ± 0.12,0.0464 ± 0.0074,0.0265 ± 0.0048,-0.421 ± 0.074,0.177 ± 0.23,0.0347 ± 0.061,0.029 ± 0.08,-0.203 ± 0.19
CC[C@H](NC(=O)[C@H](C)NC)C(=O)N1C[C@@H](O)C[C@H]1Cc1c(-c2[nH]c3cc(F)ccc3c2C[C@@H]2C[C@H](O)CN2C(=O)[C@H](CC)NC(=O)[C@H](C)NC)[nH]c2cc(F)ccc12 [Birinapant],-0.257 ± 0.15,0.0945 ± 0.19,0.227 ± 0.42,0.122 ± 0.049,0.099 ± 0.37,0.193 ± 0.13,-0.0238 ± 0.022,-0.105 ± 0.07,0.0323 ± 0.012,-0.0117 ± 0.061,0.0364 ± 0.056,-0.0294 ± 0.035
COc1cc(Nc2c(C#N)cnc3cc(OCCCN4CCN(C)CC4)c(OC)cc23)c(Cl)cc1Cl [Bosutinib (SKI-606)],0.628 ± 0.15,0.302 ± 0.22,-0.169 ± 0.27,-0.668 ± 0.34,0.308 ± 0.04,0.263 ± 0.0034,-0.117 ± 0.05,-0.287 ± 0.043,0.213 ± 0.052,0.13 ± 0.11,-0.0488 ± 0.05,-0.115 ± 0.081
O=C1NC(=O)/C(=C/c2cccc(C(F)(F)F)c2)S1,-0.284 ± 0.42,-0.559 ± 0.55,-0.676 ± 0.64,-0.536 ± 0.52,0.0641 ± 0.17,-0.197 ± 0.4,-0.192 ± 0.31,-0.311 ± 0.2,-0.0032 ± 0.18,-0.166 ± 0.15,-0.111 ± 0.21,-0.208 ± 0.15
"CNC(=O)[C@H](Cc1c[nH]c2ccccc12)NC(=O)[C@@H](CC(=O)NO)CC(C)C [Ilomastat (GM6001, Galardin)]",0.197 ± 0.25,0.163 ± 0.24,0.0906 ± 0.078,-0.11 ± 0.14,0.246 ± 0.12,0.11 ± 0.17,0.0511 ± 0.031,-0.131 ± 0.18,0.0553 ± 0.12,-0.0106 ± 0.13,0.00741 ± 0.047,-0.106 ± 0.11
CC12CC3CC(C)(C1)CC(N)(C3)C2 [Memantine HCl],0.0833 ± 0.23,0.0723 ± 0.16,-0.00737 ± 0.29,0.0769 ± 0.37,0.126 ± 0.17,0.0202 ± 0.014,0.0753 ± 0.12,-0.00162 ± 0.07,0.0686 ± 0.082,0.00368 ± 0.012,0.106 ± 0.083,-0.0472 ± 0.052
Cc1c(-c2ccc(O)cc2)n(Cc2ccc(OCCN3CCCCCC3)cc2)c2ccc(O)cc12 [Bazedoxifene HCl],0.422 ± 0.066,0.365 ± 0.044,-0.78 ± 0.82,-1.15 ± 0.61,0.0789 ± 0.023,0.124 ± 0.03,-0.194 ± 0.016,-0.415 ± 0.047,0.159 ± 0.23,0.0263 ± 0.059,-0.146 ± 0.02,-0.28 ± 0.13
Cc1ccc(C(=O)N(CCCN)[C@@H](c2nc3cc(Cl)ccc3c(=O)n2Cc2ccccc2)C(C)C)cc1,-0.323 ± 0.17,-0.518 ± 0.37,-0.511 ± 0.3,-0.713 ± 0.41,-0.303 ± 0.12,-0.329 ± 0.14,-0.325 ± 0.092,-0.343 ± 0.066,-0.222 ± 0.073,-0.191 ± 0.083,-0.196 ± 0.06,-0.201 ± 0.13
CN1C2CCCC1CC(NC(=O)c1nn(C)c3ccccc13)C2 (stereo unspecified) [Granisetron HCl],-0.214 ± 0.075,-0.086 ± 0.068,-0.178 ± 0.091,-0.297 ± 0.17,0.0253 ± 0.065,0.172 ± 0.11,-0.0307 ± 0.033,-0.206 ± 0.013,0.061 ± 0.13,-0.00237 ± 0.047,0.0178 ± 0.028,-0.0434 ± 0.16
Cc1cc2c(cc1CC(=O)c1sccc1S(=O)(=O)Nc1onc(C)c1Cl)OCO2 [Sitaxentan sodium],0.112 ± 0.076,-0.129 ± 0.45,-0.05 ± 0.3,-0.103 ± 0.27,-0.0262 ± 0.09,0.0701 ± 0.043,0.11 ± 0.057,0.0501 ± 0.048,-0.0103 ± 0.045,-0.0256 ± 0.058,0.258 ± 0.31,0.0143 ± 0.086
O=C(O)/C=C/c1ccc(Cn2ccnc2)cc1 [Ozagrel],0.0547 ± 0.14,0.224 ± 0.19,-0.0625 ± 0.088,0.113 ± 0.086,0.201 ± 0.31,0.137 ± 0.11,0.12 ± 0.12,0.0118 ± 0.023,0.074 ± 0.093,0.0437 ± 0.039,0.0801 ± 0.072,-0.00776 ± 0.015
COc1c(C)c(C(=O)c2ccc(N)c(C(=O)O)c2)n2ccccc12,0.102 ± 0.034,0.131 ± 0.38,0.0984 ± 0.1,-0.0636 ± 0.078,0.0136 ± 0.2,0.123 ± 0.078,0.0612 ± 0.041,-0.0493 ± 0.075,0.0676 ± 0.14,0.0751 ± 0.023,0.0491 ± 0.028,0.0247 ± 0.23
